Assay results reported in paper PMC4336329 (PLoS ONE, 2015).
In all, about 310,000 compounds went through this assay and about 2,200 (0.71%) showed an effect of 50% or more. The effect is printed as a negative number. Some of the results follow.

target: human ether-à-go-go-related gene (hERG) potassium channel (human, UniProt Q12809); assay: primary screen, population patch clamp on CHO cells stably expressing hERG
Sequence (Q12809 whole entry, looked up): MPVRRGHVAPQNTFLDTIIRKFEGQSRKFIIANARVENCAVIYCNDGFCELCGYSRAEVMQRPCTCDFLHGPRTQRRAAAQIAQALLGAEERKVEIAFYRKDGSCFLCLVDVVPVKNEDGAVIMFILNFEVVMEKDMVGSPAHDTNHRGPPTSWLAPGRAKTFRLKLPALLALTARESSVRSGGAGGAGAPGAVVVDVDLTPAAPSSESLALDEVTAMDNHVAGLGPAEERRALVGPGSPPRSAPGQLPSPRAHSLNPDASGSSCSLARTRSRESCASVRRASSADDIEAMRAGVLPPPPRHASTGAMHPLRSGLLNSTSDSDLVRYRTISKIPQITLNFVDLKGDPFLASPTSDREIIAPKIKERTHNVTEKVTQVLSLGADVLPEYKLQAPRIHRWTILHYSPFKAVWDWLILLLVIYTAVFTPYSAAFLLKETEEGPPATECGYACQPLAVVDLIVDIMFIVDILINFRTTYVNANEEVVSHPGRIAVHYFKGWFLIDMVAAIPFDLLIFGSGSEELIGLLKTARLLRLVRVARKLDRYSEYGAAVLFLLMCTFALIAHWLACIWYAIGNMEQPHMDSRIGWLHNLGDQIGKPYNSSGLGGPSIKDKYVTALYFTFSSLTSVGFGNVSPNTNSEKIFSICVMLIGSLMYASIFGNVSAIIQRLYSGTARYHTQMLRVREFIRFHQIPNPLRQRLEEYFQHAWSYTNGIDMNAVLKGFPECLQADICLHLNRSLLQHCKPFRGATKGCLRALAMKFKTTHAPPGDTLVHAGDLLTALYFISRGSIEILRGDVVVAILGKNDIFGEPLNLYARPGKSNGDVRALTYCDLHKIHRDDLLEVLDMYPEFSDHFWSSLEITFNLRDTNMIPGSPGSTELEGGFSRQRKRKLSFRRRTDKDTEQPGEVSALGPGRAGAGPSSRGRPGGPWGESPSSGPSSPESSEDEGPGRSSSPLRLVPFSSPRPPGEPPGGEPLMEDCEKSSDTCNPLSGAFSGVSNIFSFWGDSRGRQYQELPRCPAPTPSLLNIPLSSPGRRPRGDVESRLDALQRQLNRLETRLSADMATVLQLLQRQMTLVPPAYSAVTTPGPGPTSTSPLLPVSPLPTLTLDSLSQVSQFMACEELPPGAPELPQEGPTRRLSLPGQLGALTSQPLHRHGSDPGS

| Compound | hERG current change (%, negative = inhibition) at 1uM |
| --- | --- |
| CN(Cc1ccccc1)c1nc(CN2CCOCC2)nc2scc(-c3ccccc3)c12 | 5.77% |
| CSc1nc(C)c(C(=O)C[n+]2ccc(C)cc2)cc1C#N.[Br-] | -2.81% |
| O=C(O)c1cccc(Cn2c(Cl)c(/C=N/NC(=O)c3ccco3)sc2=O)c1 | 26.2% |
| O=C(/C=C/c1ccccc1)c1ccc2c(c1)OCO2 | 13.2% |
| c1ccc(COCCC2CO2)cc1 (stereo not shown) | 7.68% |
| O=C(Nc1ccon1)C(Sc1ccccc1)c1ccccc1 (stereo not shown) | -7.01% |
| Cc1cnc(NC(=O)CN2CCCCC2)s1.[O-][Cl+3]([O-])([O-])O | 12.8% |
| N#Cc1ccsc1NC(=O)CN1CCN(S(=O)(=O)c2ccccc2C(F)(F)F)CC1 | 1.78% |
| O=C(NCc1nc2ccccc2[nH]1)C1=C[C@H](c2ccc3c(c2)OCO3)C[C@H](OCCCCO)O1 | 3.19% |
| O=C(NCC(c1cccnc1)N1CCN(c2ccccc2F)CC1)c1cccc(Cl)c1 (stereo not shown) | -10.5% |
| COCc1nnc(NC(=O)c2c(-c3c(Cl)cccc3Cl)noc2C)s1 | 10% |
| CCN1CCN(C(=O)/C=C/c2ccc([N+](=O)[O-])cc2)CC1 | -34.9% |
| COC(=O)c1ccc(NC(=S)NCC2CC2)cc1 | 16% |
| CC(C)c1ccc2c(c1)c(SC(C)(C)C)c(CC(C)(C)C(=O)O)n2Cc1ccc(Cl)cc1 | 5.14% |
| Cc1nc2c(nnn2Cc2ccccc2)c(=O)[nH]1 | 13.1% |
| CC(OC(=O)c1ccc(OCC2CCCO2)cc1)C(=O)N(C)Cc1ccccc1 (stereo not shown) | -5.76% |
| COc1cc(C(=O)OCC(C)=O)c([N+](=O)[O-])cc1OC | 18.9% |
| O=C(CNC(=O)c1ccccc1Br)N/N=C/c1cccs1 | 9.59% |
| O=C(O)COc1ccc(NC(=O)c2ccco2)cc1 | 0.749% |
| COc1ccc(C(=O)N2CCN(C(=O)C3COc4ccccc4O3)CC2)cc1 (stereo not shown) | 25.4% |
| CSCCC(NC(=O)c1ccco1)C(=O)N1CCCC(C(F)(F)F)C1 (stereo not shown) | -9.41% |
| CCn1c(=O)c2cc(C(=O)Nc3ccccc3OC)sc2c2ccccc21 | 13.1% |
| CC(C)COC(=O)c1ccc(NC(=O)C2C3CCC(C3)C2C(=O)O)cc1 (stereo not shown) | 12.2% |
| COc1ccc(NC(=O)CSCc2cc(=O)n3nc(C4CC4)sc3n2)cc1 | 9.01% |
| COc1cc(OC)cc(C(=O)N2CCN(Cc3ccccc3[N+](=O)[O-])CC2)c1.O=C(O)C(=O)O | -7.12% |
